# Reference: the supplement of paper PMC10037445
# Over roughly 2,900 compounds, “IRF Lucia reporter activity, fold change vs agonist alone” has its median near 0.9; the highest 2% begin near 2.8. The list shows a part of the results.
# Assays:
# [1] = tested on: RAW-Dual; assay: IRF Lucia reporter activity, fold change vs agonist alone; cytotoxicity flag (confluency mask): not cytotoxic; higher = enhanced IRF activity
# In short: (§1)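 RAW-Dual macrophages were seeded in DMEM at 50,000 cells/well in 384-well plates, given 50 nL of library stock by pin tool, and given a PRR agonist 1 h later. Plates were held at 37 °C, 5% CO2 for 20 hours, after which supernatant was read for IRF by QuantiLuc luminescence and for NF-κB by QuantiBlue absorbance at 620 nm. Reporter activity is expressed as fold change over wells that received agonist alone. A well was called cytotoxic when IncuCyte confluency fell below 70% of agonist controls in both mask sets.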
# [2] = tested on: RAW-Dual; assay: IRF Lucia reporter activity, fold change vs agonist alone; higher = enhanced IRF activity; settings: library stock concentration (final ~1000-fold dilution): 10 mM, agonist: MPLA (TLR4) […]
# In short: as §1
# [3] = tested on: RAW-Dual; assay: IRF Lucia reporter activity, fold change vs agonist alone; cytotoxicity flag (confluency mask): cytotoxic (confluency <70% of control); higher = enhanced IRF activity
# In short: as §1
# [4] = agonist: 3'3'-cGAMP (STING) 10 ug/mL
# [5] = cytotoxicity flag (confluency mask): not cytotoxic
# [6] = cytotoxicity flag (confluency mask): cytotoxic (confluency <70% of control)
smiles,measurement,setting,value
CC1OC(=O)C(C)C1CC(O)C(C)(O)C1CCC2(O)C3=CC(=O)C4CC(O)C(O)CC4(C)C3CCC12C (stereo not given) (library stock concentration (final ~1000-fold dilution): 10 mM),IRF Lucia reporter activity,[1]; [4],0.966
same,IRF Lucia reporter activity,[1]; agonist: LPS (TLR4) 0.1 ug/mL,0.956
O=C(/C=C/c1ccc(O)c(O)c1)O[C@@H]1C[C@](O)(C(=O)O)C[C@@H](O)[C@H]1O (library stock concentration (final ~1000-fold dilution): 10 mM),IRF Lucia reporter activity,[1]; [4],1.08
same,IRF Lucia reporter activity,[1]; agonist: LPS (TLR4) 0.1 ug/mL,1.11
C=CCc1ccccc1OCC(O)CNC(C)C.Cl (stereo not given) (library stock concentration (final ~1000-fold dilution): 10 mM),IRF Lucia reporter activity,[1]; [4],0.823
same,IRF Lucia reporter activity,[1]; agonist: LPS (TLR4) 0.1 ug/mL,0.999
C=CCc1ccccc1OCC(O)CNC(C)C.Cl (stereo not given),IRF Lucia reporter activity,[2]; [5],1.13
O=S(=O)(Cl)c1ccc(-c2ccccc2)cc1,IRF Lucia reporter activity,[2]; [5],1.02
O=S(=O)(Cl)c1ccc(-c2ccccc2)cc1 (library stock concentration (final ~1000-fold dilution): 10 mM),IRF Lucia reporter activity,[1]; [4],1.02
same,IRF Lucia reporter activity,[1]; agonist: LPS (TLR4) 0.1 ug/mL,0.592
Nc1nc(Cl)nc2c1ncn2C1CC(O)C(CO)O1 (stereo not given),IRF Lucia reporter activity,[2]; [6],0.914
Nc1nc(Cl)nc2c1ncn2C1CC(O)C(CO)O1 (stereo not given) (library stock concentration (final ~1000-fold dilution): 10 mM),IRF Lucia reporter activity,[3]; [4],0.706
same,IRF Lucia reporter activity,[3]; agonist: LPS (TLR4) 0.1 ug/mL,0.942
CC(C)n1nc(-c2ccc(NC(=O)Nc3cc(C(F)(F)F)ccc3F)cc2)c2c(N)ncnc21 (library stock concentration (final ~1000-fold dilution): 10 mM),IRF Lucia reporter activity,[1]; [4],0.0107
same,IRF Lucia reporter activity,[1]; agonist: LPS (TLR4) 0.1 ug/mL,0.0198
N#Cc1c(NC(=O)c2cccc3ccccc23)sc2c1CCCC2,IRF Lucia reporter activity,[2]; [5],1.73
N#Cc1c(NC(=O)c2cccc3ccccc23)sc2c1CCCC2 (library stock concentration (final ~1000-fold dilution): 10 mM),IRF Lucia reporter activity,[1]; [4],0.636
same,IRF Lucia reporter activity,[1]; agonist: LPS (TLR4) 0.1 ug/mL,1.55
C=CC(=O)Nc1cccc(Nc2nc(Nc3ccc(OCCOC)cc3)ncc2F)c1 (library stock concentration (final ~1000-fold dilution): 10 mM),IRF Lucia reporter activity,[1]; [4],0.0159
same,IRF Lucia reporter activity,[1]; agonist: LPS (TLR4) 0.1 ug/mL,0.0838
C=CC(=O)Nc1cccc(Nc2nc(Nc3ccc(OCCOC)cc3)ncc2F)c1,IRF Lucia reporter activity,[2]; [5],0.0928
CCC(=O)Nc1cccc(Oc2nc(Nc3ccc(N4CCN(C)CC4)cc3OC)ncc2Cl)c1 (library stock concentration (final ~1000-fold dilution): 10 mM),IRF Lucia reporter activity,[3]; [4],0.692
same,IRF Lucia reporter activity,[3]; agonist: LPS (TLR4) 0.1 ug/mL,0.774
CCC(=O)Nc1cccc(Oc2nc(Nc3ccc(N4CCN(C)CC4)cc3OC)ncc2Cl)c1,IRF Lucia reporter activity,[2]; [6],1.02
CC(C)CC(=O)NC(C(=O)NC(C(=O)NC(CC(C)C)C(O)CC(=O)NC(C)C(=O)NC(CC(C)C)C(O)CC(=O)O)C(C)C)C(C)C (stereo not given) (library stock concentration (final ~1000-fold dilution): 10 mM),IRF Lucia reporter activity,[1]; [4],0.751
same,IRF Lucia reporter activity,[1]; agonist: LPS (TLR4) 0.1 ug/mL,0.901
CC(C)CC(=O)NC(C(=O)NC(C(=O)NC(CC(C)C)C(O)CC(=O)NC(C)C(=O)NC(CC(C)C)C(O)CC(=O)O)C(C)C)C(C)C (stereo not given),IRF Lucia reporter activity,[2]; [5],1.05
COc1ccc(CCc2nc3cc(-c4c(C)noc4C)ccc3n2CC(C)N2CCOCC2)cc1Cl (stereo not given),IRF Lucia reporter activity,[2]; [5],0.203
COc1ccc(CCc2nc3cc(-c4c(C)noc4C)ccc3n2CC(C)N2CCOCC2)cc1Cl (stereo not given) (library stock concentration (final ~1000-fold dilution): 10 mM),IRF Lucia reporter activity,[1]; [4],0.452
same,IRF Lucia reporter activity,[1]; agonist: LPS (TLR4) 0.1 ug/mL,0.421
O=C1NCCCc2c1oc1ccc(O)cc21 (library stock concentration (final ~1000-fold dilution): 10 mM),IRF Lucia reporter activity,[1]; [4],0.578
same,IRF Lucia reporter activity,[1]; agonist: LPS (TLR4) 0.1 ug/mL,0.289
O=C1NCCCc2c1oc1ccc(O)cc21,IRF Lucia reporter activity,[2]; [5],0.466
COc1cc(N2CCC(N3CCN(C)CC3)CC2)ccc1Nc1ncc(Cl)c(Nc2ccccc2P(C)(C)=O)n1 (library stock concentration (final ~1000-fold dilution): 2 mM),IRF Lucia reporter activity,[1]; [4],0.139
same,IRF Lucia reporter activity,[1]; agonist: LPS (TLR4) 0.1 ug/mL,0.597
COc1ccccc1OCC(O)COC(N)=O (stereo not given),IRF Lucia reporter activity,[2]; [5],0.678
COc1ccccc1OCC(O)COC(N)=O (stereo not given) (library stock concentration (final ~1000-fold dilution): 10 mM),IRF Lucia reporter activity,[1]; [4],0.995
same,IRF Lucia reporter activity,[1]; agonist: LPS (TLR4) 0.1 ug/mL,0.997
NC(=O)C(=Cn1cnc(-c2cc(C(F)(F)F)cc(C(F)(F)F)c2)n1)c1cncnc1 (library stock concentration (final ~1000-fold dilution): 10 mM),IRF Lucia reporter activity,[1]; [4],0.0799
same,IRF Lucia reporter activity,[1]; agonist: LPS (TLR4) 0.1 ug/mL,0.172
CN(C)CCOC(=O)COc1ccc(Cl)cc1.Cl (library stock concentration (final ~1000-fold dilution): 10 mM),IRF Lucia reporter activity,[1]; [4],0.862
same,IRF Lucia reporter activity,[1]; agonist: LPS (TLR4) 0.1 ug/mL,1.04
CN(C)CCOC(=O)COc1ccc(Cl)cc1.Cl,IRF Lucia reporter activity,[2]; [5],0.877
COc1cc(-c2oc3cc(O)cc(O)c3c(=O)c2OC2OC(CO)C(O)C(O)C2OC2OC(C)C(O)C(O)C2O)ccc1O (stereo not given) (library stock concentration (final ~1000-fold dilution): 10 mM),IRF Lucia reporter activity,[1]; [4],1.05
same,IRF Lucia reporter activity,[1]; agonist: LPS (TLR4) 0.1 ug/mL,1.02
